These results are taken from PubChem BioAssay (NCI).

Values joined by “and” are separate entries in the source; they are usually repeats but may differ in a detail not shown here. Identical values can stand only once.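 How tested: cells in 96-well plates exposed to compound for 48 hours at five concentrations. GI50: concentration for 50% inhibition of growth. TGI marks complete inhibition of growth.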

This test relates to NCI-H322M lung. Briefly: NCI tumour cell line growth inhibition, 48 h.
For `CN(/N=C/c1ccccn1)C1=NCCN1`, the TGI is > 100 µM.
Same read-out and setting: with `Fc1ccc2c(c1)SC1=Nc3sc4cc(F)ccc4[n+]3CN12` the figure was 82.2 µM.
The same measure, in the same setting: then `CCCN1C(=O)CN(S(=O)(=O)c2ccc(Cl)cc2)C1=O`, with > 100 µM; and `Cc1ccccc1NC(=O)C1C(=O)N(c2ccccc2C)C(=O)/C1=N\NC(N)=O` (configuration not stated), with > 100 µM; and `NS(=O)(=O)c1cc2c(cc1Cl)NCNS2(=O)=O`, with > 100 µM.
Consider `COc1cc(Nc2cc(Cl)cc(Cl)c2)nc(N)n1`, for which the TGI was found to be 57.9 µM.
The same measure, in the same setting: then `O=c1c(-c2ccccc2)c(SCCCN2CCCCC2)n(-c2ccccc2)c(=S)n1-c1ccccc1`, with > 100 µM; and `CC1(C)CC(=O)C(C(=O)Nc2cccs2)=C(O)C1`, with > 100 µM.
On the same count and under the same terms, then `C#CCN(C(=O)C(F)(F)F)C(/C=C\C(=O)OC)(C(=O)OCC)C(=O)OCC`, with > 100 µM; and `Cc1cn([C@H]2C[C@@H](N3C(=O)c4ccccc4C3=O)[C@@H](CO[Si](C)(C)C(C)(C)C)O2)c(=O)[nH]c1=O`, with > 100 µM; and `N#Cc1c(CC(=O)O)cc(=O)n2c1[nH]c1ccccc12`, with > 100 µM.
As to `N#C[Se]CCN1C(=O)c2ccccc2C1=O`, the GI50 is 2.07 µM and the TGI was 6.05 µM.
In the case of `COc1ccc(OC)c(/C=C2/C(=O)N=C(NC(C)=O)N2C)c1`, the TGI was > 100 µM.
For `COc1cc2c(Oc3ccc(-c4cnc(Nc5ccc(F)cc5)n(C)c4=O)cc3F)ccnc2cc1OCCCN1CCOCC1`, the GI50 is 1.53 µM and the TGI is 4.36 µM.
`CC1=N/C(=C\c2ccc(C)cc2)C(=O)O1`: the TGI is > 100 µM.
Still for that read-out and setting: with `N#CCc1nc(-c2cc3ccccc3oc2=O)cs1` the figure was > 100 µM.
Regarding `CN(C)c1ccc(/C=N/N=C(\C#N)[S][Sn]([Cl])([c]2ccccc2)[c]2ccccc2)cc1`, the GI50 is 2.21 µM and the TGI amounted to 6.03 µM.
Consider `COc1ccc(/C=C2\C[C@H]3[C@@H]4CC=C5C[C@@H](O)CC[C@]5(C)[C@H]4CC[C@]3(C)\C2=N\O)cc1`, for which the TGI was > 100 µM.
On the same count and under the same terms, with `Clc1ccc(C(OCn2ccnc2)c2nc3ccccc3[nH]2)c(Cl)c1` (configuration not stated) the figure was > 100 µM.
The same measure, in the same setting: then `CCN(C(=O)N[C@@H](CC(C)C)C(=O)NCC(=O)OC)c1ccccc1`, with > 100 µM; and `C=CCN1C(=O)NC(=O)/C(=C/c2c3ccccc3cc3ccccc23)C1=O`, with 55.3 µM.
The same measure, in the same setting: then `ON1CCc2c([nH]c3ccccc23)C1c1ccc(Cl)cc1` (configuration not stated), with > 100 µM.
`C#CCCCCCC(=O)N[C@H]1C=C[C@@H]2/C=C(C)/C=C/[C@@H](C)[C@H]([C@H](C)[C@H](O)[C@@H](C)NC(C)=O)OC(=O)/C=C/C=C(C)\C=C\[C@]2(C)C1`: the GI50 is 0.178 µM and the TGI was > 40 µM.
As to `Cc1ccccc1NC(=O)CC(=O)NNCC(=O)Nc1nnc(-c2ccccc2)s1`, the TGI is > 100 µM.
Still for that read-out and setting: with `COC(=O)N/N=C(\C)c1sc(-c2nc(C)c(/C(C)=N/NC(=O)OC)s2)nc1C` the figure was > 100 µM.
For the compound `O=c1c(Oc2ccc(F)cc2F)cc2cnc(NC3CCOCC3)nc2n1C1CC1`, the GI50 was > 25 µM and the TGI was > 25 µM.
In the case of `COc1cc(S(=O)(=O)Nc2nc(-c3ccc(N=Cc4ccccc4O)cc3)cs2)ccc1Cl`, the TGI was > 100 µM.
With `COC(=O)C(=O)C(C(=O)C(=O)Nc1cccc(OC)c1)c1nc2ccc(Cl)cc2[nH]c1=O` (configuration not stated), the TGI was > 100 µM.
Same read-out and setting: with `C=CCN(c1cc(O)c2c(c(C)cn2S(=O)(=O)c2ccccc2)c1[N+](=O)[O-])S(C)(=O)=O` the figure was > 100 µM.
For `O=C(/C=C(\[O-])c1ccccc1)CCCCCCC(=O)/C=C(\[O-])c1ccccc1.O=C(/C=C(\[O-])c1ccccc1)CCCCCCC(=O)/C=C(\[O-])c1ccccc1.O=C(/C=C(\[O-])c1ccccc1)CCCCCCC(=O)/C=C(\[O-])c1ccccc1.[Y+3].[Y+3]`, the GI50 was > 50 µM and the TGI was > 50 µM.
`C=C(C)c1nc(Oc2ccccc2)nc(Oc2ccccc2)n1` had a TGI of 31.2 µM.
As to `COc1ccccc1CNCCCN1C(=O)c2ccc3c4c(ccc(c24)C1=O)C(=O)N(CCCNCc1ccccc1OC)C3=O`, the GI50 is 0.228 µM and the TGI amounted to 0.707 µM.
`O=c1oc2ccccc2c(-c2ccc(O)cc2)c1Oc1ccccc1` displayed a TGI of 46 µM.
In the case of `O=C1NC(=NCc2cccs2)O/C1=C\c1ccc2ncccc2c1`, the GI50 was 3.47 µM and the TGI came to 13 µM.
Turning to `CCCCCCC1OC23OC1CCC2C(O)CCC3O` (configuration not stated), the TGI is > 100 µM.
As to `COc1ccc([C@@H]2[C@@H](Oc3ccccc3)C(=O)N2c2cc(OC)c(OC)c(OC)c2)cc1F`, the GI50 is 0.721 µM and the TGI is > 100 µM.
As for `CN(C)c1ccc(/C=c2/sc3nc(=O)c(-c4ccccc4NC(=O)C(F)(F)F)nn3c2=O)cc1`, the TGI was > 100 µM.
As to `NC(CCC(=O)O)C(=O)NC(Cc1ccc(N(CCCl)CCCl)cc1)C(=O)O` (configuration not stated), the TGI was > 100 µM.
Consider `OCc1ccc(N2CCc3ccc(F)cc3C2)cc1Cl`, for which the GI50 was 2.99 µM and the TGI stood at 15.2 µM.
`C/C(=C\c1ccccc1)C(O)C(=O)c1nc2ccc(Cl)cc2[nH]c1=O` (configuration not stated): the TGI was > 100 µM.
Still for that read-out and setting: then `O=[N+]([O-])c1ccc(/C=C(/c2ccc([N+](=O)[O-])o2)S(=O)(=O)c2ccccc2)cc1`, with > 100 µM.
Same read-out and setting: with `O=S1(=O)C(=C(c2ccccc2)c2ccccc2)S(=O)(=O)c2ccccc21` the figure was > 100 µM.
For the compound `CCOC(=O)c1c(Cl)c2c(n1Cc1ccccc1)-c1oncc1CCC2`, the GI50 is > 100 µM and the TGI was > 100 µM.
Take `CC[C@]12C=CCN3CC[C@@]4(c5ccc(OC)cc5N(C)[C@H]4[C@@](O)(C(=O)OC)[C@@H]1OC(=O)CCCN1CCN(CCCC(=O)O[C@@H]4[C@]5(CC)C=CCN6CC[C@@]7(c8ccc(OC)cc8N(C)[C@H]7[C@@]4(O)C(=O)OC)[C@@H]65)CC1)[C@@H]32`: the GI50 was 1.51 µM and the TGI is 3.05 µM.
With `O=C(CC1(O)C(=O)Nc2c(Cl)cc(Cl)cc21)c1cccc([N+](=O)[O-])c1` (configuration not stated), the TGI was > 100 µM.
Regarding `N#CC1=C(N)Oc2c(ccc3ccccc23)C1c1cc2ccccc2n2nnnc12` (configuration not stated), the GI50 was 2.15 µM and the TGI was > 100 µM.
For `COc1ccc(-n2c(=O)c3ccccc3n(Cc3ccc(C(=O)NO)cc3)c2=O)cc1`, the GI50 is 3.17 µM and the TGI is > 100 µM.
Consider `O=C(CC1(O)C(=O)Nc2c(Cl)ccc(Cl)c21)c1ccc(Cl)cc1` (configuration not stated), for which the TGI is > 100 µM.
Same read-out and setting: with `COC(=O)c1ccc(CCC2=CC(=O)C=CC2=O)cc1` the figure was 93.9 µM.
Same read-out and setting: then `CO/C(N)=C(\C#N)N=Cc1ccsc1`, with > 100 µM.
Regarding `COc1cc2c(cc1C)NC(=O)/C2=C\c1ccc(Oc2ccccc2)cc1`, the GI50 is 15.1 µM and the TGI turned out to be 40.3 µM.
`CC(C)(C)C1CCC(O)(c2ccccc2)CC1` (configuration not stated): the TGI was > 100 µM and 64.5 µM.
On to `OC[C@H]1C[C@](O)(c2ccc(F)cc2)[C@@H](c2ccc(F)cc2)O1`, for which the GI50 is > 100 µM and the TGI was > 100 µM.
As to `N/C(=N\N=C\c1nc2ccccc2o1)c1cnccn1`, the TGI was > 100 µM.
On the same count and under the same terms, with `CC1(c2ccc(Cl)cc2)C=C(c2ccc(Cl)cc2)C(C#N)=C(C(C#N)C#N)N1` (configuration not stated) the figure was 29.7 µM.
Consider `COc1cc2c(cc1OCCN1CCN(CCN3C(=O)c4cccc5cccc(c45)C3=O)CC1)N=C[C@@H]1CCCN1C2=O`, for which the GI50 is 23.2 µM and the TGI came to 41.3 µM.
With `O=C(/C=C/c1ccccc1)CCN1CCCCC1`, the TGI was > 100 µM.
The same measure, in the same setting: with `CC(C)(C)OC(=O)/N=C/c1c(O)c2ccccc2oc1=O` the figure was > 100 µM; with `O=C(O)c1ccccc1/C=C1\Cc2cc3c(cc2C1=O)CCC3`, > 100 µM; with `O=c1c2cc(Br)ccc2nc(CNc2ccccc2)n1-c1ccccc1`, > 79.7 µM.
For the compound `O=C1C[C@@H]2OCC=C3C[N+]4([O-])CC[C@]56c7ccccc7N1[C@H]5[C@H]2[C@H]3C[C@@H]64` (some centres not stated), the GI50 was > 100 µM and the TGI is > 100 µM.
As for `CC(C)C(=O)Cc1ccc2ccccc2n1`, the TGI was > 100 µM.
Consider `COc1cc(NC(=O)COc2ccccc2)c(C(N)=O)cc1OC`, for which the GI50 was 5.77 µM and the TGI was > 100 µM.
`C(=NC12CC3CC(CC(C3)C1)C2)C1CCCCC1`: the TGI is > 100 µM.
With `Cn1cc(-c2ccc3c(c2)ncn3-c2cc(NS(=O)(=O)C3CC3)cc(-c3ccc(F)cc3F)c2)cn1`, the GI50 is 23.8 µM and the TGI was > 100 µM.
Take `CN(C)c1ccc(/C=C2\CCc3ccccc3C2=O)cc1Br`: the TGI was > 100 µM.
`Cc1[nH]c(=O)c2oc3cc4ccccc4cc3c2c1C(=O)O`: the TGI was > 10 µM.
On the same count and under the same terms, with `CC(C)(C)n1c(=O)n2c(-c3ccccc3)c(-c3ccccc3)n2c1=O` the figure was > 100 µM; with `COC(=O)C1=C(OC)C(=P2(c3ccccc3)CC(c3ccccc3)=C2c2ccccc2)C(C(=O)OC)=C1C(=O)OC` (configuration not stated), > 100 µM; with `COC(=O)C1=C(O)C(C(=O)OC)[C@@]2(O)[C@@H](C(=O)OC)[C@H](C)C[C@@H]1[C@@H]2C(=O)OC` (some centres not stated), > 100 µM.
As to `CCOC(=O)C#Cc1c(C(=O)OCC)nnn1[C@@H]1O[C@H](COC)[C@@H](OC)[C@H]1OC`, the GI50 is 24.5 µM and the TGI came to 83.5 µM.
For the compound `COC(=O)c1c(C)cccc1C1CN=NC12Cc1cc(C)c(C)cc1C2=O` (configuration not stated), the TGI was > 100 µM.
Still for that read-out and setting: then `COc1cc2c(cc1OCCCOc1cc3c(cc1OC)C(=O)N1CCC[C@H]1C(=O)N3)N=C[C@@H]1CCCN1C2=O`, with 66 µM; and `NC1=C(c2nc(-c3ccccc3)cs2)C(c2ccco2)c2c(c3ccccc3oc2=O)O1` (configuration not stated), with > 100 µM; and `COC(=O)/C=C1\C(CO[Si](C)(C)C(C)(C)C)OC(n2ccc(=O)[nH]c2=O)C1O` (configuration not stated), with 55.1 µM.
`COc1cc(/C=C/C(=O)c2nc3cc(F)ccc3nc2C)cc(OC)c1OC`: the GI50 is > 100 µM and the TGI was > 100 µM.
With `COc1nc(N)nc2nc[nH]c12`, the GI50 is > 800 µM and 532 µM; the TGI is 257 µM and > 800 µM and > 1000 µM.
On to `CCOC(OCC)(OCC)C(Br)CC` (configuration not stated), for which the TGI was > 100 µM.
Same read-out and setting: then `CCCCC(C(=O)C(=O)Nc1ccccc1CC)C(=O)C(C)C` (configuration not stated), with > 100 µM.
For `FC(F)(F)c1cccc(CNC2CCN(CCc3ccccc3)CC2)c1`, the GI50 was 80.8 µM and the TGI was > 100 µM.
Consider `NCCCCNOCCCN`, for which the TGI is > 100 µM.
Consider `NS(=O)(=O)c1c(O)c2ccccc2oc1=O`, for which the TGI is > 100 µM.
Still for that read-out and setting: then `CCOc1ccc(OP2(=O)NC(=O)C=C(C)N2)cc1` (configuration not stated), with > 100 µM.
